Assay results from the supplement of paper PMC3334620.
In all, about 33,000 sequences were measured (“E-score (-0.5 to 0.5)”: median about -0.017, highest 2% from about 0.3 on). The list shows a part of the results.

target: T1, Sut1 (UniProt P53032); experiment: PBM E-score (8-mer binding enrichment) (E-score (-0.5 to 0.5)); higher = stronger / more preferred TF binding; most listed sequences are background and not binding sites; settings: protein concentration: 200 nM; construct: GST-full length
T1 sequence: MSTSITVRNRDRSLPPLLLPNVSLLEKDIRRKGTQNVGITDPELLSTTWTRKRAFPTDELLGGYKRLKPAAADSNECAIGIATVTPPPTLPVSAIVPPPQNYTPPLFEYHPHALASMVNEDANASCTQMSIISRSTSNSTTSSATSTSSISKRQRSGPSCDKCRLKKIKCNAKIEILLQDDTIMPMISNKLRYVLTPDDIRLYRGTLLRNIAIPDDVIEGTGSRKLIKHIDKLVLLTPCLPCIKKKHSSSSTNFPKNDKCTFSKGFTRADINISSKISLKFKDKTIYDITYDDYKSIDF
In short: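 Detection of bound protein used fluorescent anti-GST, with scans normalised by masliner. The proteins were GST-tagged yeast transcription factors applied at about 100-200 nM to universal all-10-mer Agilent arrays made double-stranded by primer extension. Each ungapped eight-base word, pooled with its reverse complement, was scored with an E-score from the Universal PBM Analysis Suite.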

Sequence	PBM E-score
GAGACCAA	0.163
CTACAGCA	-0.0706
CAATGACA	0.0479
GATCTTCA	0.214
GCCTTTTA	-0.029
ACTAAAAA	0.353
AATTAAGA	0.136
CAGAAATG	-0.102
GGGTGAGA	-0.216
CGGTTCAG	-0.168
CTCCCGAC	-0.024
AAGGCTTC	0.00803
GCGCAGAC	-0.0966
CCTTTCAA	0.11
CCAGAAGA	-0.0584
ACGCGATG	-0.0333
ACCAAACA	0.122
CACCACAG	-0.0613
CCCTGACC	-0.149
CGACTCTA	-0.169
GAGAGATA	0.059
CCTACAAG	-0.166

Sequence	PBM E-score
ATGATAGA	0.106
ACAGCCCC	-0.239
CCCTCAAG	-0.262
AGGATCAC	-0.149
CTCGGTGA	0.0148
CTGACGTA	-0.128
GTATAGAA	0.0544
CCATCAGA	-0.213
ACCTCAAC	0.024
CAAAGAAC	0.135
AGTGATCG	-0.0497
ATGAACGG	-0.0206
ACTGTATA	0.13
CTAGCGTC	-0.206
CAACCTAA	0.039
GAAAGGCA	0.134
GGAGTGGA	0.0666
TACGTCCA	-0.143
CATGAAAC	-0.0169
ATCTGTAC	0.181
ACGGCGAA	0.0457
GTCGACGA	-0.139

Sequence	PBM E-score
CCCTGGTA	-0.336
TGGACGAA	-0.0708
CGTTGAGC	-0.0678
ACGCCCGT	-0.00657
ATACCATA	0.167
CGACACCG	-0.118
AGCTATGG	-0.158
CATTAAGG	0.0414
AAATAACT	0.228
CTGGTGCC	-0.172
GCTCGACC	-0.118
TAAAATAA	0.213
ACAGTAAT	0.149
CTGCTTTA	0.247
CACCTGAA	0.0358
GGACAGTA	0.184
CTACCGGA	0.222
CACCTATC	-0.0662
TCGGTTCA	0.0892
GATGCTCA	-0.00757
AATCTGGC	-0.128
ATTCTGCG	-0.0829

Sequence	PBM E-score
AAGTCGCG	0.0992
AACGAGCG	-0.0329
CAATCAAC	0.185
ACTTGTCG	-0.0426
GGAAACCA	0.00587
GGCCTGAA	-0.266
AAATGTAA	0.206
AGTTTCTC	0.124
ACTCTACG	-0.0563
GAAGGACA	0.0334
ACAGCGTA	0.073
GATCAGAA	-0.128
AGTGACAG	0.0779
ATACCCCG	0.182
AAGGGCAA	0.0159
CATTCAGC	-0.0282
GTCGCGCA	0.0446
CTACCCAA	-0.0324
CATGTCCA	0.0978
CTACAAAG	0.0387
